In all, about 33,000 sequences were measured (“E-score (-0.5 to 0.5)”: median about -0.016, highest 2% from about 0.31 on). The list shows a part of the results.
target: Cst6 (UniProt P40535); assay: PBM E-score (8-mer binding enrichment) (E-score (-0.5 to 0.5)); higher = stronger / more preferred TF binding; most listed sequences are background and not binding sites; conditions: protein concentration: 200 nM; construct: GST-DNA-binding domain
Procedure, shortened: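 E-scores (a modified Wilcoxon-Mann-Whitney statistic) were assigned by the Universal PBM Analysis Suite to every ungapped eight-base word pooled with its reverse complement. The input came from universal all-10-mer Agilent arrays made double-stranded by primer extension and probed with GST-tagged yeast transcription factors at about 100-200 nM. Fluorescent anti-GST detected bound protein, and masliner normalised the scans.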

Row | Sequence | PBM E-score
1 | CCGTACCA | 0.00128
2 | AACCCGCG | 0.053
3 | CGGTGACA | 0.266
4 | AACATGTG | 0.22
5 | CATAGCAC | 0.138
6 | CCCCGACG | -0.241
7 | CTAAACAG | 0.0727
8 | CTAGACGC | -0.132
9 | CTAAAGAG | -0.0139
10 | AAAAGTGC | 0.0658
11 | GAATCATA | 0.151
12 | CATCACTA | 0.353
13 | GTCATAAC | 0.29
14 | CCACCGGG | -0.295
15 | CATTTAAA | 0.279
16 | CCGGTTTA | -0.0985
17 | AGGCCAGA | -0.185
18 | CACTACGA | 0.129
19 | GAAGCTGA | 0.0703
20 | GGATTAGA | -0.142
21 | AGATAACG | 0.203
22 | GATTTACA | 0.191
23 | AGTTTTTG | 0.147
24 | GCACCGAC | 0.00751
25 | CACTGTAC | -0.267

Row | Sequence | PBM E-score
26 | CATAATGC | 0.0974
27 | ACGTTGCT | 0.0989
28 | GGCAGGAC | -0.324
29 | GCCTCCCA | -0.211
30 | GAACGACA | 0.0632
31 | GAAATGCA | -0.0223
32 | GCGCTGCC | -0.144
33 | CAATCGAG | -0.191
34 | ACCATGTC | 0.145
35 | CGGTTTTA | -0.063
36 | CATTCCCC | -0.155
37 | GCGTGACA | 0.255
38 | CTGCTATA | 0.0154
39 | CCTAAGCA | -0.0807
40 | GGAAGTAA | -0.0428
41 | CGCTGGAA | -0.0873
42 | GGTAATTA | 0.215
43 | GACATGAC | 0.275
44 | CCGAATTC | 0.0525
45 | AAGCTCTA | -0.157
46 | ATCACGGG | 0.112
47 | CGACGGCA | -0.00873
48 | ATAGATAC | 0.137
49 | GTACACGA | 0.192
50 | CCGTATGA | 0.226

Row | Sequence | PBM E-score
51 | TTACTGAA | 0.128
52 | AGCAGTCC | -0.35
53 | CGCGCTGA | -0.0301
54 | GACATTCA | 0.0891
55 | CTAAGACA | 0.0903
56 | GACAAATC | 0.0252
57 | GAAAAAAA | 0.258
58 | CCGGTTTC | -0.131
59 | AGGCCCTG | -0.25
60 | TCTGCTCA | -0.0542
61 | CAAAAGGG | -0.0943
62 | GAAAAGAC | 0.222
63 | CGCCTTAC | 0.163
64 | AGTAGTAC | 0.101
65 | CAATAAGC | -0.0306
66 | ATATGAGC | -0.0814
67 | GGCATACC | -0.21
68 | AAGGTTAT | -0.0505
69 | AACCGAGT | -0.219
70 | CAAAGCTG | -0.06
71 | CCTGCGTA | 0.0652
72 | AACTGTTA | 0.144
73 | GGCAAAGA | 0.0808
74 | ACACGTCG | -0.0793
75 | GAGTGGCC | -0.161

Row | Sequence | PBM E-score
76 | AATGGTTC | 0.0881
77 | AGTGCGTG | -0.00229
78 | GACCGAAC | -0.0143
79 | ATGAGACA | 0.00932
80 | GCATCGCC | -0.101
81 | ATGACTTC | 0.218
82 | CGCAAGCC | -0.0358
83 | ACTTTCCT | -0.00458
84 | GACGGCAA | 0.18
85 | GTGACTTA | 0.206
86 | ACGCCTGA | 0.142
87 | CATTTGGC | 0.0498
88 | AAGGTAAG | 0.0212
89 | TATGCGCA | -0.0237
90 | GGCAGGGA | -0.142
91 | ACGCGACC | -0.0529
92 | CAATCGCG | -0.0451
93 | CGTCGAGC | -0.104
94 | TAACCCAA | 0.174
95 | TCATGGCA | 0.0614
96 | CCCAATTC | 0.178
97 | AGTAAGGA | -0.0515
98 | GTAAAGAA | 0.214
99 | CGAATGAC | 0.348
100 | CGTAGCTC | 0.156

Row | Sequence | PBM E-score
101 | AAGAAGGC | -0.0423
102 | CATTTAAG | 0.115
103 | GGGAATTA | 0.11
104 | GACGCCTC | 0.242
105 | CACTCTAA | 0.00605
106 | ACCGTTAC | -0.0121
107 | GCAGTTAC | 0.0988
108 | CATTATAG | 0.108
109 | GTTACAGA | -0.0693
110 | ATCTCTCG | -0.0585
111 | CCCACGCC | -0.134
112 | ATACGAAT | 0.0442
113 | TCGATTCA | 0.0946
114 | CCTCATCA | 0.161
115 | ACAGAAAA | 0.229
116 | AGATCATA | 0.236
117 | CCGCAAGA | 0.0205
118 | AATATAGA | 0.265
119 | AAACTCCT | -0.234
120 | GCATAGCA | 0.00461
121 | AGGTGCAC | 0.103
122 | AAGTTTAT | 0.187
123 | GACCTTGC | -0.25
124 | GGGGTCTA | -0.148
125 | GTATCCCA | -0.23

Row | Sequence | PBM E-score
126 | CACTACTA | -0.125
127 | AAAGGCAA | 0.229
128 | ATTCGCAA | 0.0498
129 | CACCCATG | 0.0657
130 | CACAAGGA | -0.0992
131 | ACTGGGGG | -0.426
132 | AATTGCGG | -0.0187
133 | GTTCGAGA | 0.0898
134 | ATAAAGCC | -0.0256
135 | AACTTCCT | 0.0315
136 | CAGTAGAA | 0.0612
137 | CGGGTGAC | 0.279
138 | GCGACGCC | 0.119
139 | AGAATATG | 0.252
140 | GCCGTCAC | 0.334
141 | CTATTCTA | 0.0634
142 | CGTTTACC | 0.09
143 | GATCCAAC | -0.156
144 | CTGAGCAG | -0.0256
145 | CTTACAAC | 0.136
146 | AACGCCGC | 0.361
147 | CCCTATAG | -0.195
148 | GTAGTAAC | -0.1
149 | AGGGACTA | -0.127
150 | ATGGTGAC | 0.267

Row | Sequence | PBM E-score
151 | CAGAACTC | -0.0115
152 | AATGATGG | 0.186
153 | AATTCCCG | 0.0254
154 | CAAGAATG | 0.123
155 | GATAACAC | 0.0167
156 | AGGTATCC | -0.0124
157 | ACATACAC | 0.115
158 | GCGTGCGA | -0.124
159 | GGAGGAAA | -0.205
160 | GTGCTGCA | -0.0597
161 | CCCGGAGA | -0.0792
162 | CGTGAAAA | 0.0945
163 | GCTGACGA | 0.27
164 | ATCAGGGC | -0.145
165 | CTTCATCA | 0.106
166 | CGATAGGC | 0.0216
167 | GGCGACCA | -0.208
168 | GGCTGTTA | 0.221
169 | GTAGAACA | -0.215
170 | AACTAATT | 0.209
171 | CGTCGTTA | 0.0174
172 | GCTTTCTA | 0.228
